Measurements from the antibiotic and cytotoxicity screens of Wong et al. (2023).
The list shows a part of the results.

Assays:
HSkMC = human skeletal muscle cells; assay: cytotoxicity call (relative viability < 0.9); conditions: 10 µM
HepG2 = assay: cytotoxicity call (relative viability < 0.9); conditions: 10 µM
S. aureus RN4220 = assay: growth inhibition call (relative growth <= 0.2); conditions: 50 µM

| SMILES | cytotoxicity call (HSkMC) | cytotoxicity call (HepG2) | growth inhibition call (S. aureus RN4220) |
| --- | --- | --- | --- |
| Cc1ccc(S(=O)(=O)N[C@@H]2CC[C@@H](CCNC(=O)CN3CCOCC3)O[C@H]2CO)cc1 | inactive | inactive | inactive |
| C[C@@H]1CCCCO[C@H](CN(C)C(=O)C2CCCCC2)[C@H](C)CN([C@H](C)CO)C(=O)c2cc(NC(=O)c3ccncc3)ccc2O1 | inactive | inactive | inactive |
| NC[C@H](c1ccncc1)c1ccc[nH]1 | inactive | inactive | inactive |
| C[C@@H]1CCCCO[C@@H](CN(C)C(=O)c2ccccc2)[C@H](C)CN([C@H](C)CO)C(=O)c2cc(NS(=O)(=O)c3ccc(Cl)cc3)ccc2O1 | inactive | inactive | inactive |
| C[C@H]1CN([C@@H](C)CO)C(=O)c2cc(NS(=O)(=O)c3cn(C)cn3)ccc2O[C@@H]1CN(C)S(=O)(=O)c1cn(C)cn1 | inactive | inactive | inactive |
| C[C@H](CO)N1C[C@H](C)[C@@H](CN(C)CC2CC2)OCCCC[C@H](C)Oc2ccc(NC(=O)Cc3ccccc3)cc2C1=O | inactive | inactive | inactive |
| O=C(C[C@@H]1CC[C@@H](NC(=O)Cc2ccccn2)[C@@H](CO)O1)NCCc1ccncc1 | inactive | inactive | inactive |
| O=C(C[C@@H]1C[C@@H]2c3cc(NC(=O)C4CCOCC4)ccc3O[C@@H]2[C@H](CO)O1)NCc1ccc2c(c1)OCO2 | inactive | inactive | inactive |
| C[C@H](CO)N1C[C@H](C)[C@@H](CN(C)Cc2ccc(C(F)(F)F)cc2)Oc2ccc(NC(=O)Nc3cccc4ccccc34)cc2CC1=O | inactive | inactive | inactive |
| C[C@H]1CN([C@@H](C)CO)C(=O)c2cc(C3=CCCC3)cnc2O[C@H]1CN(C)C(=O)Nc1ccc(C(F)(F)F)cc1 | inactive | active | inactive |
| CCS(=O)(=O)N1CCO[C@]2(COCCN(c3cncnc3)C2)C1 | inactive | inactive | inactive |
| C[C@H](CO)N1C[C@H](C)[C@@H](CN(C)C(=O)c2cc(Cl)cc(Cl)c2)OCc2ccccc2-c2c(n(C)c3ccccc23)C1=O | active | active | inactive |
| CC(=O)N=c1sc(S(N)(=O)=O)nn1C | inactive | inactive | inactive |
| COc1ccc(S(=O)(=O)Nc2ccc3c(c2)C(=O)N([C@@H](C)CO)C[C@@H](C)[C@@H](CN(C)C(=O)Nc2ccc(C(F)(F)F)cc2)OCCCC[C@@H](C)O3)cc1 | inactive | active | inactive |
| COc1ccc(NC(=O)N(C)C[C@H]2Oc3ccc(NC(=O)C4CC4)cc3CC(=O)N([C@@H](C)CO)C[C@@H]2C)cc1 | inactive | inactive | inactive |
| C[C@@H]1CN([C@H](C)CO)C(=O)c2cccc(NC(=O)Nc3ccc(C(F)(F)F)cc3)c2O[C@@H]1CN(C)C(=O)Nc1ccc(F)cc1 | inactive | inactive | active |
| COc1ccc(S(=O)(=O)N(C)C[C@@H]2Oc3ccc(NS(=O)(=O)c4ccccc4)cc3CC(=O)N([C@@H](C)CO)C[C@@H]2C)cc1 | inactive | inactive | inactive |
| Cc1noc(C)c1S(=O)(=O)Nc1cccc2c1O[C@H](CN(C)Cc1ccccc1)[C@H](C)CN([C@@H](C)CO)C2=O | inactive | inactive | inactive |
| C[C@@H]1CCCCO[C@H](CN(C)Cc2ccc(C(=O)O)cc2)[C@@H](C)CN([C@H](C)CO)C(=O)c2cc(NC(=O)c3ccccc3)ccc2O1 | inactive | inactive | inactive |
| C[C@H](CO)N1C[C@H](C)[C@H](CN(C)CC2CC2)Oc2ccc(NS(=O)(=O)c3cccs3)cc2C1=O | inactive | inactive | inactive |

| SMILES | cytotoxicity call (HSkMC) | cytotoxicity call (HepG2) | growth inhibition call (S. aureus RN4220) |
| --- | --- | --- | --- |
| C[C@H]1CN([C@@H](C)CO)C(=O)Cc2cc(NC(=O)C3CC3)ccc2O[C@@H]1CN(C)S(=O)(=O)c1cn(C)cn1 | inactive | inactive | inactive |
| CNNCc1ccc(C(=O)NC(C)C)cc1 | inactive | inactive | inactive |
| Cc1noc(C)c1NC(=O)N(C)C[C@H]1Oc2ccc(NS(=O)(=O)c3ccccc3)cc2C(=O)N([C@H](C)CO)C[C@H]1C | inactive | inactive | inactive |
| COCC(=O)Nc1ccc2c(c1)C(=O)N(C)[C@@H]1CC[C@@H](CC(=O)NCc3ccc(OC)cc3)O[C@H]1CO2 | inactive | inactive | inactive |
| C[C@@H]1CN([C@H](C)CO)C(=O)c2cccc(NC(=O)c3cnccn3)c2O[C@@H]1CN(C)Cc1ccc2c(c1)OCO2 | inactive | inactive | inactive |
| CC(C)N1C[C@@H](CN(C)Cc2ccc(Cl)cc2)Oc2c(cccc2-c2nnc(-c3ccncc3)o2)C1=O | inactive | inactive | inactive |
| Cc1noc(C)c1NC(=O)Nc1cccc2c1O[C@H](CN(C)Cc1ccc(-c3ccccc3)cc1)[C@@H](C)CN([C@H](C)CO)C2=O | inactive | inactive | inactive |
| COc1ccc(/C=C/C(=O)C=C(O)/C=C/c2ccc(OC)c(OC)c2)cc1OC | inactive | inactive | inactive |
| C/C=C/c1cnc2c(c1)C(=O)N([C@@H](C)CO)C[C@H](C)[C@H](CN(C)S(=O)(=O)c1ccc(OC)cc1)O2 | inactive | inactive | inactive |
| C[C@H](CO)N1C[C@H](C)[C@H](CN(C)C(=O)Nc2ccc(F)cc2)OCCCC[C@H](C)Oc2ccc(NS(=O)(=O)c3ccccc3)cc2C1=O | inactive | inactive | inactive |
| COC(=O)CNC(=O)C(=O)OC | inactive | inactive | inactive |
| CNC1C(O)C(OC2C(N)CC(N)C(OC3OC(CN)=CCC3N)C2O)OCC1(C)O.O=S(=O)(O)O (centres undefined) | inactive | inactive | active |
| CCCCCC/C=C/C=C\CCCCCCCC(=O)O | inactive | inactive | inactive |
| CO[C@@H]1CN(C)C(=O)c2cc(NS(=O)(=O)CC(F)(F)F)ccc2OC[C@H](C)N(Cc2cccnc2)C[C@@H]1C | inactive | inactive | inactive |
| C[C@H]1CN([C@@H](C)CO)C(=O)c2cccc(NC(=O)c3ccc(-c4nccs4)cc3)c2O[C@H]1CN(C)C(=O)Nc1ccccc1 | inactive | inactive | inactive |
| C[C@H]1CN([C@@H](C)CO)C(=O)c2cc(NC(=O)CCC(F)(F)F)ccc2O[C@@H]1CN(C)Cc1ccc(Cl)c(Cl)c1 | inactive | inactive | inactive |
| COc1ccc(NC(=O)Nc2ccc3c(c2)C(=O)N([C@@H](C)CO)C[C@H](C)[C@H](CN(C)C(=O)NC2CCCCC2)OCCCC[C@H](C)O3)cc1 | inactive | inactive | inactive |
| COc1ccc(S(=O)(=O)N(C)C[C@H]2OCCCC[C@H](C)Oc3ccc(NC(=O)Nc4ccc(C(F)(F)F)cc4)cc3C(=O)N([C@H](C)CO)C[C@@H]2C)cc1 | inactive | active | inactive |
| CCOC(=O)CCCCCC(=O)Nc1ccc2c(c1)C(=O)N([C@H](C)CO)C[C@@H](C)[C@@H](CN(C)S(=O)(=O)c1ccc(Cl)cc1)OCCCC[C@H](C)O2 | inactive | inactive | inactive |
| CN1CCN2c3ncccc3Cc3ccccc3C2C1 (centres undefined) | inactive | inactive | inactive |

| SMILES | cytotoxicity call (HSkMC) | cytotoxicity call (HepG2) | growth inhibition call (S. aureus RN4220) |
| --- | --- | --- | --- |
| CC[C@@]1(C)OC(=O)N(C)C1=O | inactive | inactive | inactive |
| COc1cc(N2CCO[C@]3(COCCN(S(C)(=O)=O)C3)C2)ncn1 | inactive | inactive | inactive |
| C[C@H](CO)N1C[C@H](C)[C@H](CN(C)C(=O)Cc2ccccc2)Oc2cc(-c3cncnc3)ccc2S1(=O)=O | inactive | inactive | inactive |
| CO[C@H]1CN(C)C(=O)c2cc(NS(=O)(=O)CC(F)(F)F)ccc2OC[C@@H](C)N(Cc2nccs2)C[C@H]1C | inactive | inactive | inactive |
| COC(=O)[C@@H](NC(=O)Cn1cc(C(=O)NO)nn1)c1ccccc1 | inactive | active | inactive |
| C[C@@H]1CN([C@H](C)CO)C(=O)Cc2cc(NC(=O)NC3CCCCC3)ccc2O[C@H]1CN(C)Cc1ccc(C(=O)Nc2ccccc2N)cc1 | inactive | inactive | inactive |
| Cc1cc2c(cc1N)n(C)c(=O)n2C | inactive | inactive | inactive |
| COc1cc([C@@H](O)C(=O)O)ccc1O | inactive | inactive | inactive |
| C[C@@H]1CN([C@@H](C)CO)C(=O)c2cccc(NC(=O)c3ccc(-c4nccs4)cc3)c2O[C@H]1CN(C)Cc1ccc(C(F)(F)F)cc1 | inactive | inactive | inactive |
| COCC(=O)Nc1ccc2c(c1)C(=O)N(C)[C@H]1CC[C@H](CC(=O)NCc3ccc(OC)cc3)O[C@H]1CO2 | inactive | inactive | inactive |
| O=C(CN1CCOCC1)NCC[C@@H]1CC[C@H](NS(=O)(=O)c2ccc(Cl)cc2)[C@H](CO)O1 | inactive | inactive | inactive |
| COc1ccc(S(=O)(=O)N[C@@H]2CC[C@@H](CC(=O)N3CCN(c4ccccc4)CC3)O[C@@H]2CO)cc1 | inactive | inactive | inactive |
| C[C@H]1CCCCO[C@H](CN(C)C(=O)Nc2ccc3c(c2)OCO3)[C@@H](C)CN([C@@H](C)CO)C(=O)c2cc(NS(=O)(=O)c3ccccc3)ccc2O1 | inactive | inactive | inactive |
| COc1ccccc1NCC(=O)NN | inactive | inactive | inactive |
| Cc1noc(C)c1S(=O)(=O)N(C)C[C@H]1Oc2ccc(NS(C)(=O)=O)cc2C(=O)N([C@H](C)CO)C[C@@H]1C | inactive | inactive | inactive |
| COc1ccccc1CNC(=O)C[C@H]1C[C@H]2c3cc(NC(=O)Cc4ccncc4)ccc3O[C@H]2[C@@H](CO)O1 | inactive | inactive | inactive |
| CN(C)CCCNC(=O)C[C@@H]1CC[C@H]2[C@@H](COC[C@@H](O)CN2C(=O)c2cc(Cl)cc(Cl)c2)O1 | inactive | inactive | inactive |
| C[C@@H]1CN([C@H](C)CO)C(=O)c2cc(NC(=O)Nc3ccccc3)ccc2O[C@@H]1CN(C)S(C)(=O)=O | inactive | inactive | inactive |
